Results: the supplement of paper PMC4604168 (melanoma cell lines)
The list shows a part of the results. Repeats are few or missing, and single values can be far off.

Legend:
Experiment in all cases: cell count relative to DMSO control; melanoma cells; higher = more viable cells
Details in all cases: library dose: standard library concentration; 72 h
G361 = tested on: G361
IPC-298 = tested on: IPC-298
IST-MEL1 = tested on: IST-MEL1
LB2518-MEL = tested on: LB2518-MEL
LOXIMVI = tested on: LOXIMVI
MEL-HO = tested on: MEL-HO
MZ2-MEL = tested on: MZ2-MEL
MeWo = tested on: MeWo
RPMI7951 = tested on: RPMI7951
RVH-421 = tested on: RVH-421
SkMel28 = tested on: SkMel28
SkMel2 = tested on: SkMel2
SkMel30 = tested on: SkMel30
SkMel5 = tested on: SkMel5
UACC257 = tested on: UACC257
UACC62 = tested on: UACC62
WM115 = tested on: WM115
WM1716 = tested on: WM1716
WM3526 = tested on: WM3526
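Note: cells treated in 1,536-well plates, then fixed and DAPI-stained, with nuclei counted from automated high-throughput microscope images.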

Row | SMILES | cell count (G361) [%] | cell count (IPC-298) [%] | cell count (IST-MEL1) [%] | cell count (LB2518-MEL) [%] | cell count (LOXIMVI) [%] | cell count (MEL-HO) [%] | cell count (MZ2-MEL) [%] | cell count (MeWo) [%] | cell count (RPMI7951) [%] | cell count (RVH-421) [%] | cell count (SkMel28) [%] | cell count (SkMel2) [%] | cell count (SkMel30) [%] | cell count (SkMel5) [%] | cell count (UACC257) [%] | cell count (UACC62) [%] | cell count (WM115) [%] | cell count (WM1716) [%] | cell count (WM3526) [%]
1 | Cn1cc(C2=C(c3cn(C4CCN(Cc5ccccn5)CC4)c4ccccc34)C(=O)NC2=O)c2ccccc21 [Enzastaurin] + CCN(CC)CCCCNc1ncc2cc(-c3cc(OC)cc(OC)c3)c(NC(=O)NC(C)(C)C)nc2n1 [PD173074] (first compound 4 µM, partner dose 0.5 µM) | 74.3 | 101 | 76.5 | 82.8 | 108 | 93.9 | 100 | 89.5 | 42.2 | 53.9 | 101 | 82.3 | 92.3 | 99.8 | 111 | 85.8 | 120 | 74.1 | 96.1
2 | C[C@]12O[C@H](C[C@]1(O)CO)n1c3ccccc3c3c4c(c5c6ccccc6n2c5c31)CNC4=O [Lestaurtinib] + COc1ccc2c(c1)CCC1C2CCC2(C)C(NCCCCCCN3C(=O)C=CC3=O)CCC12 [U73122] (first compound 0.02 µM, partner dose 2 µM) | 71.7 | 87.7 | 105 | 77.3 | 78.3 | 87.5 | 100 | 60.4 | 61.2 | 66.4 | 67.3 | 92.9 | 74.5 | 55.5 | 89 | 63.5 | 73 | 78 | 70.4
3 | Cn1cc(C2=C(c3cn(C4CCN(Cc5ccccn5)CC4)c4ccccc34)C(=O)NC2=O)c2ccccc21 [Enzastaurin] + N#Cc1c(O)c2c(-c3ccc(-c4ccccc4O)cc3)csc2[nH]c1=O [A769662] (first compound 4 µM, partner dose 10 µM) | 74.2 | 89 | 83.9 | 54.8 | 97.1 | 89.4 | 109 | 91.9 | 77.4 | 49.6 | 92.8 | 86.2 | 96.2 | 100 | 110 | 92.1 | 128 | 82.6 | 104
4 | Cn1cc(C2=C(c3cn(C4CCN(Cc5ccccn5)CC4)c4ccccc34)C(=O)NC2=O)c2ccccc21 [Enzastaurin] + C/C(O)=C(\C#N)C(=O)Nc1cc(Br)ccc1Br [LFM-A13] (first compound 4 µM, partner dose 10 µM) | 75.8 | 104 | 65.1 | 79.2 | 102 | 85.5 | 94.6 | 88.5 | 41.7 | 64.3 | 113 | 72 | 88.4 | 81.5 | 105 | 65 | 90.7 | 54.5 | 82.7
5 | Cn1cc(C2=C(c3cn(C4CCN(Cc5ccccn5)CC4)c4ccccc34)C(=O)NC2=O)c2ccccc21 [Enzastaurin] + Cc1cc(SCc2sc(-c3ccc(C(F)(F)F)c(F)c3)nc2C)ccc1OCC(=O)O [GW0742] (first compound 4 µM, partner dose 10 µM) | 69.9 | 83.7 | 81.6 | 58 | 97.4 | 81.1 | 89.6 | 84.8 | 53.5 | 46.4 | 76.9 | 48.9 | 103 | 85.8 | 101 | 46.8 | 94.4 | 63.1 | 89.9
6 | C[C@]12O[C@H](C[C@]1(O)CO)n1c3ccccc3c3c4c(c5c6ccccc6n2c5c31)CNC4=O [Lestaurtinib] + O=C(Nc1ccccc1)c1cc([N+](=O)[O-])ccc1Cl [GW9662] (first compound 0.02 µM, partner dose 10 µM) | 62.8 | 74.8 | 97.6 | 50.9 | 55.2 | 64.8 | 58.8 | 55.3 | 81.6 | 59.4 | 31.8 | 73.9 | 68.5 | 46.5 | 73.8 | 70.8 | 43.2 | 92.1 | 56.9
7 | Cn1cc(C2=C(c3cn(C4CCN(Cc5ccccn5)CC4)c4ccccc34)C(=O)NC2=O)c2ccccc21 [Enzastaurin] + Cn1cc(/C=C2\C(=O)Nc3cccnc32)c2ccccc21 [GW441756] (first compound 4 µM, partner dose 2 µM) | 58.2 | 79.3 | 84.9 | 49.7 | 107 | 88 | 82.8 | 91.3 | 46.6 | 51.6 | 80.4 | 64.6 | 76.3 | 57 | 91.1 | 82 | 94.7 | 81.5 | 76.7
8 | Cn1cc(C2=C(c3cn(C4CCN(Cc5ccccn5)CC4)c4ccccc34)C(=O)NC2=O)c2ccccc21 [Enzastaurin] + COc1ccc(-c2ccc3c(N4CCOCC4)nc(N4C[C@@H](C)O[C@@H](C)C4)nc3n2)cc1CO [KU0063794] (first compound 4 µM, partner dose 0.1 µM) | 64.4 | 88.7 | 78.4 | 38.8 | 99 | 78 | 88.3 | 92.4 | 54.6 | 48.9 | 60.4 | 70.2 | 83.7 | 61.2 | 103 | 77 | 101 | 87 | 83.5
9 | C[C@]12O[C@H](C[C@]1(O)CO)n1c3ccccc3c3c4c(c5c6ccccc6n2c5c31)CNC4=O [Lestaurtinib] + Cn1cc(/C=C2\C(=O)Nc3cccnc32)c2ccccc21 [GW441756] (first compound 0.02 µM, partner dose 2 µM) | 82.4 | 52.9 | 96.2 | 55.8 | 83.2 | 73.5 | 89.6 | 78.6 | 75.9 | 76.4 | 87.1 | 112 | 86.9 | 73.9 | 86.4 | 73.1 | 82.5 | 104 | 73.4
10 | C[C@]12O[C@H](C[C@]1(O)CO)n1c3ccccc3c3c4c(c5c6ccccc6n2c5c31)CNC4=O [Lestaurtinib] + CCN(CC)CCCCNc1ncc2cc(-c3cc(OC)cc(OC)c3)c(NC(=O)NC(C)(C)C)nc2n1 [PD173074] (first compound 0.02 µM, partner dose 0.5 µM) | 84.8 | 78.7 | 104 | 58.1 | 90.7 | 81.6 | 110 | 68.6 | 110 | 98.9 | 57.9 | 87.9 | 86.1 | 60.7 | 110 | 75.6 | 81.4 | 90.6 | 67.1
11 | C[C@]12O[C@H](C[C@]1(O)CO)n1c3ccccc3c3c4c(c5c6ccccc6n2c5c31)CNC4=O [Lestaurtinib] + COc1cc2ncnc(Nc3ccc(Oc4ccccc4)cc3)c2cc1OC [SrcI1] (first compound 0.02 µM, partner dose 10 µM) | 33.5 | 59.4 | 84.9 | 71.6 | 75.2 | 79.2 | 70.6 | 52.1 | 54.4 | 96.4 | 50.2 | 92.1 | 72.2 | 50.1 | 75.6 | 49.1 | 50.6 | 84.4 | 58.4
12 | N.N.[Cl][Pt][Cl] [cisplatin] + CCc1ccc(CCOc2ccc(CC3SC(=O)NC3=O)cc2)nc1 [pioglitazone] (first compound 8 µM, partner dose 10 µM) | 68 | 71.8 | 85.1 | 66.7 | 70.7 | 83.3 | 75 | 111 | 72.3 | 75.7 | 47 | 73.4 | 98.4 | 82 | 70.8 | 85.2 | 106 | 86 | 89.1
13 | Cn1cc(C2=C(c3cn(C4CCN(Cc5ccccn5)CC4)c4ccccc34)C(=O)NC2=O)c2ccccc21 [Enzastaurin] + COc1cc(N2CCC(N3CCN(C)CC3)CC2)ccc1Nc1ncc(Cl)c(Nc2ccccc2S(=O)(=O)C(C)C)n1 [NVP-TAE684] (first compound 4 µM, partner dose 0.4 µM) | 62.5 | 99.2 | 87.1 | 73.8 | 76.5 | 84.8 | 94.4 | 63.6 | 29 | 61.7 | 90.2 | 69.6 | 104 | 73.6 | 84.3 | 48.4 | 89.3 | 72.3 | 68.6
14 | Cn1cc(C2=C(c3cn(C4CCN(Cc5ccccn5)CC4)c4ccccc34)C(=O)NC2=O)c2ccccc21 [Enzastaurin] + CCCCCCCCCCCC1=C(O)C(=O)C=C(O)C1=O [Embelin] (first compound 4 µM, partner dose 6 µM) | 66.5 | 79 | 63 | 78.8 | 103 | 73.1 | 82.9 | 102 | 70.2 | 60.7 | 112 | 79.9 | 117 | 86.8 | 84.1 | 93.5 | 89.9 | 65.7 | 88.9
15 | C[C@]12O[C@H](C[C@]1(O)CO)n1c3ccccc3c3c4c(c5c6ccccc6n2c5c31)CNC4=O [Lestaurtinib] + CCCCCCCCCCCC1=C(O)C(=O)C=C(O)C1=O [Embelin] (first compound 0.02 µM, partner dose 6 µM) | 55.3 | 54.4 | 63.9 | 77.2 | 85.9 | 68.2 | 83.6 | 93.4 | 68.6 | 62.6 | 67.6 | 94.2 | 104 | 89.4 | 81.1 | 102 | 91.2 | 84.4 | 91.1
16 | C[C@]12O[C@H](C[C@]1(O)CO)n1c3ccccc3c3c4c(c5c6ccccc6n2c5c31)CNC4=O [Lestaurtinib] + Cc1cc(SCc2sc(-c3ccc(C(F)(F)F)c(F)c3)nc2C)ccc1OCC(=O)O [GW0742] (first compound 0.02 µM, partner dose 10 µM) | 90.5 | 81.7 | 112 | 79.7 | 96.2 | 95.3 | 100 | 78.2 | 107 | 120 | 96.3 | 105 | 98.8 | 76 | 111 | 95.6 | 63.2 | 107 | 72.5
17 | Cn1cc(C2=C(c3cn(C4CCN(Cc5ccccn5)CC4)c4ccccc34)C(=O)NC2=O)c2ccccc21 [Enzastaurin] + O=C1NC(=O)/C(=C/c2ccc(-c3ccc(F)cc3O)o2)S1 [AS252424] (first compound 4 µM, partner dose 5 µM) | 79.8 | 84.7 | 81 | 56.6 | 70.5 | 81 | 94.1 | 81.6 | 48.8 | 70.5 | 70.6 | 53 | 92.4 | 83.1 | 97.3 | 55.7 | 98.8 | 63.9 | 85.2
